The campaign covered roughly 150,000 compounds. About 540 (0.36%) showed an effect of 50% or more. This is one part of the list.
test system: Plasmodium falciparum; assay: Primary screen in NF54 nanoGlo assay, in single point, at 2uM, 72h; a lower Z score goes with more inhibition; assay type: functional, Erythrocyte; settings: timepoint 72 hour

Structure (SMILES)	% Inhibition	Z score
O=S(=O)(c1ccc(N2CCCCC2)nc1)N1CCOCC1	-15%	2.83
NS(=O)(=O)c1ccc(CCNC(=O)c2ccc(-n3cnnc3)nc2)cc1	-10%	0.95
COCCn1nc2n(c1=O)CCN(C(=O)CC1=CCCCC1)CC2	-11%	1.69
CCCCOc1ccc([C@@](C)(C#N)CC#N)cc1	-5%	0.9
O=c1nc(NCc2ccco2)ccn1-c1nc(-c2ccccc2)sc1-c1ccccc1	-29%	3.43
O=C(NCC1CCN(S(=O)(=O)Cc2ccc(F)cc2F)CC1)[C@@H]1CCCO1	-27%	2.35
O=C(Cn1cccn1)NCc1ccc2c(c1)OCO2	0%	-0.05
Cc1cc(NC(=O)C2CC(=O)NC(C)C2)cc(C)c1Cl (configuration not stated)	-23%	2.04
CC(NCC1CCCn2cc(C(C)(C)C)nc21)C(=O)N1CCOCC1 (configuration not stated)	-11%	1.35
CCCNC(=O)NCCn1nnc2cc(S(=O)(=O)N3CCCC3)ccc21	27%	-3.06
CCc1ccccc1-n1nc(-c2ccc(C)c(C)c2)cc1-c1ccc(C)c(C)c1	28%	-3.22
C#CC[C@H](NC(=O)c1cc(C)cc(C)c1Br)C(N)=O	-8%	0.74
Cc1cc(NCc2noc(-c3ccsc3)n2)ccc1C(N)=O	34%	-4.61
C[C@@H](c1cccnc1)N(Cc1cnn2ccccc12)CC1CCOCC1	-8%	1.05
CCn1cc(C(=O)NCc2cc3c(nc2OC)CN(C2CCCC2)C3=O)cn1	-10%	1.8
C[C@](O)(CNC(=O)N1CCN(S(C)(=O)=O)C1=O)c1cc2ccccc2s1	-26%	3.27
C[C@H](CCO)Nc1ccc(Br)cc1C#N	-12%	1.65
COc1ccccc1C1CNCCN1C(=O)C1COc2ccccc2O1 (configuration not stated)	6%	-0.77
Nc1c(N2CCCC2)cccc1N1CCCC1	-6%	1.09

Structure (SMILES)	% Inhibition	Z score
COCCc1ccc2oc(NCc3csc(C)n3)nc2c1	-9%	0.85
c1nnsc1CN1CCCc2n[nH]cc21	9%	-1.78
O=C(c1ccnc(N2CC[C@H](Cc3ccc(CO)cc3)C2)c1)N1CCOCC1	7%	-0.83
OCC(CNc1ccnc(C(F)(F)F)c1)C1CCOC1 (configuration not stated)	-12%	1.49
O=C1NCCCn2nc(C3CCN(S(=O)(=O)c4ccc5c(c4)CCC5)CC3)cc21	-8%	1.58
Cc1cc(C(=O)N2C3CCC2CC(S(=O)(=O)c2ccccc2)C3)c(C)o1 (configuration not stated)	-5%	0.63
CCCN1CCN(Cc2nn(C)c(=O)[nH]2)c2cc(F)ccc21	9%	-1.19
Cc1noc(C)c1CN(C)CCCN1C(=O)NC(C)(C)C1=O	-1%	0.15
COc1ccc(COCC(=O)NC2CCOCC2N2CCCC2)cc1 (configuration not stated)	-8%	1.56
Cc1cnn(CCC(=O)Nc2ccc(OC[C@H]3CCCCO3)cc2)c1	-8%	1.03
CCC(NC(C)c1ccc(-n2cnnn2)cc1)c1c(C)nn(C)c1C (configuration not stated)	-10%	0.97
C[C@@H](C(=O)OCc1cccc2cccnc12)N1CCOCC1	-4%	0.63
Cn1ncc2cc(-c3ccc(C(=O)NCCOCCO)cc3)ccc21	12%	-1.62
O=C(C1CCC1)N1CC[C@]23C(=O)N(Cc4cn(nn4)CCCOc4cccc(c4)[C@H]12)c1ccccc13	-8%	1.53
CCNC(=O)c1cccnc1N(C)CCn1ccnc1	-12%	1.23
O=C(c1ccco1)N1CCC[C@H]1c1ccc2c(c1)OCCCO2	-7%	1.07
CC(C(=O)NCCC1=CCCCC1)N1CCOC(c2nccs2)C1 (configuration not stated)	7%	-0.83
CCOc1ccc2nc(NC(=O)Cc3csc(NC(=O)c4ccc(OC)c(OC)c4)n3)sc2c1	-23%	3.02
COc1cc(OC)c(CN2C[C@H](O)[C@@H](N3CCCC3)C2)cc1Cl	-2%	0.3

Structure (SMILES)	% Inhibition	Z score
O=C(Cc1c(F)cccc1Cl)N1CC[C@@H]2OCc3cnnn3[C@H]2C1	2%	-0.29
CN(C)C(=O)C(C)(C)N[C@@H]1C=CCCC1	-8%	1.2
O=C(COc1cccc2c1N=S=N2)Nc1ccc(F)cc1	5%	-0.82
CC(C)N1C(=O)NC2(CCN(C(C(N)=O)c3ccc(F)cc3)C2)C1=O (configuration not stated)	-5%	0.52
Cc1cc(C)n([C@@H](C)C(=O)N(CCC#N)c2ccccc2)n1	-12%	1.73
CCc1sc(=O)[nH]c1-c1ccccc1	-19%	2.1
COc1ccc(C(=O)NC[C@H]2CCCN2Cc2ccccc2)nn1	-3%	0.43
Cc1cccc(O)c1C(=O)N[C@@]1(c2ccc(S(C)(=O)=O)cc2)CCOC1	-1%	0.13
CC(CN1CCCCCC1)NC(C)C(C)N1CCOCC1 (configuration not stated)	-8%	0.76
CN1CCN(c2ncnc(-c3ccc(Cl)cc3F)c2N)CC1	-17%	2.28
COc1cccc(N2CCN(C(=O)c3ccc(-c4noc(C5CCCC5)n4)cc3)CC2)c1	-10%	1.21
CC(C)(C)N(CC(N)=O)Cc1ccc(C#N)cc1Br	6%	-0.53
CC(Cn1ccnc1)NC(=O)C1(C)CC1(Cl)Cl (configuration not stated)	-33%	3.92
Cc1cc(CNS(=O)(=O)c2cccc(-n3cnnn3)c2)no1	7%	-0.66
CCN(CC1CCOCC1)C(=O)c1cccc(CC2CCNCC2)c1	-8%	1.48
O=S(=O)(NC1CC1)c1ccc2c(c1)OCCCO2	0%	0.01
O=C(CCN1C[C@@H]2CC[C@H]1C2)NCc1cc(-c2ccccc2Cl)on1	-7%	1.04
CC(C)C[C@H]1CN(C)CCN1C(=O)CN1CCOCC1=O	-3%	0.42

— ChEMBL document CHEMBL4888484, “Replenishing the malaria drug discovery pipeline: Screening and hit evaluation of the MMV Hit Generation Library 1 (HGL1) against asexual blood stage Plasmodium falciparum ,using a nano luciferase reporter read-out” (2022)
